Laboratory results taken from PubChem BioAssay AID1508642 (National Center for Advancing Translational Sciences (NCATS), 2021).
About 200 (0.47%) of roughly 43,000 compounds were called active. Inconclusive results (about 12%) are left out. Calls come from the whole dose curve; as a rule, active = well fitted cell-killing curve with a large enough effect; inconclusive = small, poorly fitted or top-dose-only effect, or effect the other way; inactive = flat fitted curve, though single readings scatter. The list shows a part of the results.

Assay: Cell viability qHTS assay in S16 Pmp22-F2sN cells; note: nearly all actives have a fitted effect of over 65% in size
Conditions: S16 Pmp22-F2sN Schwann cells viability, CellTiter-Glo, 24 h; series mostly up to 57.5 µM; activity change, negative = cytotoxicity: at the top concentration
Procedure, shortened: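 Viability was measured by CellTiter-Glo luminescence (15 min, room temperature). This followed 24 h at 37 °C of compound exposure (23 nL pin transfer) in S16 Pmp22-F2sN Schwann cells, 500-1,000 per well.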
% is set by controls: 0 for no effect and ±100 for the full control effect; potency is the fitted concentration of half-maximal effect.

Row | Compound | activity change, negative = cytotoxicity | Potency
1 | COc1ccc(Cn2c(C(=O)O)c(CNC3CCCC3)c3ccc(C)cc32)cc1 | inactive: 0.875% | 
2 | Cc1ccc(C)c(NC(=O)CSc2c(C)cnc3c2c(=O)n(C)c(=O)n3C)c1 | inactive: 7.71% | 
3 | O=C(Cn1cnc2nc3c(cc2c1=O)CCCC3)N1CCN(c2cccc(C(F)(F)F)c2)CC1 | inactive: -4.4% | 
4 | CCOc1ccc(OCC)c(NS(=O)(=O)c2c(C)[nH]c(=O)[nH]c2=O)c1 | inactive: 17.8% | 
5 | CCOc1ccc(NC(=O)CSc2nc(-c3cccc(Cl)c3)nc3c2Cc2c(CO)cnc(C)c2O3)cc1 | inactive: -3.95% | 
6 | Cc1ccc(C)c(NC(=O)Cn2ncc3c([nH]c4ccccc43)c2=O)c1 | inactive: 2.31% | 
7 | COC(=O)c1cc2oc(C)cc2n1Cc1cc(C)ccc1C | inactive: -4.49% | 
8 | Cc1cccc(NC(=O)CC2Nc3cccc4cccc(c34)NC2=O)c1 (configuration not stated) | inactive: -1.59% | 
9 | Cc1ccccc1CNC(=O)Cn1c(C)c2cnn(-c3ccccc3)c(=O)c2c1C | inactive: 12.6% | 
10 | CCOC(=O)COc1ccc(/C=C(\C#N)c2nc3ccc(C)cc3[nH]2)cc1OC |  | active: 8.91 µM
11 | CCOC(=O)c1sc(N2C(=O)c3oc4ccccc4c(=O)c3C2c2ccc(C(C)(C)C)cc2)nc1C (configuration not stated) | inactive: 0.343% | 
12 | CCCCOc1ccc(C(=O)Nc2cc(-c3ccc(C)cc3)no2)cc1 | inactive: 16.9% | 
13 | Cc1cccc(NC(=O)CSc2nc(-c3cccc(C)c3)nc3c2Cc2c(CO)cnc(C)c2O3)c1 | inactive: 2.51% | 
14 | CC1(C)Cc2c(c(N3CCOCC3)nc3sc(C(=O)Nc4ccc(Cl)cc4)c(N)c23)CO1 | inactive: 0.654% | 
15 | CCc1nc2ccc(C(=O)NCc3ccc(OC)c(OC)c3)cc2nc1CC | inactive: 6.81% | 
16 | Cc1ccc2c(c1)-c1onc(C(=O)N(C)c3cccc(C(F)(F)F)c3)c1CO2 | inactive: 23.4% | 
17 | Cc1cccn2c3c(c(=O)nc12)C(c1cccc(F)c1)CC(=O)N3 (configuration not stated) | inactive: -2.43% | 
18 | CCOc1ccc(NC(=O)c2c(C)nn(-c3ccc(F)cc3)c2-n2cccc2)cc1 | inactive: 7.05% | 
19 | Cc1cn2c(=O)cc(COc3cccc(NC(=O)c4ccc(C(C)(C)C)cc4)c3)nc2s1 | inactive: -10.2% | 
20 | CCOC(=O)C1CCN(CC(=O)Nc2cc(C)c3c(=O)oc4ccccc4c3n2)CC1 | inactive: 11.4% | 
21 | Cc1ccc(NC(=O)CN(C)S(=O)(=O)c2ccc3c(c2)n(C)c(=O)c(=O)n3C)cc1F | inactive: -16% | 
22 | Cc1nn(-c2ccccc2)c2nc(C3CC3)cc(C(=O)Nc3ccc(F)cc3)c12 | inactive: 3.23% | 
23 | O=C(Nc1ccc(OCc2cc(=O)n3c4c(sc3n2)CCCC4)cc1)c1cccc(F)c1 | inactive: 7.8% | 
24 | COc1cccc2cc(S(=O)(=O)c3ccc(F)c(C)c3)c(=O)oc12 | inactive: 0.268% | 
25 | CCOC(=O)c1cc(-c2ccccc2)n(CCC(=O)NCc2ccccc2Cl)c1C | inactive: -18.1% | 

Row | Compound | activity change, negative = cytotoxicity | Potency
26 | COC(=O)c1sc2cccc(F)c2c1S(=O)(=O)N1CCN(c2cccc(OC)c2)CC1 | inactive: -0.687% | 
27 | COc1ccc(Nc2nc3ccccc3nc2NS(=O)(=O)c2ccc(C)cc2)c(OC)c1 | inactive: -0.322% | 
28 | Cc1nc2nc(SCC(=O)N(C)Cc3ccccc3)nn2c(C)c1Cc1ccccc1Cl | inactive: -1.34% | 
29 | Fc1ccc(N2CCN(c3nc4ccccc4c4nc(-c5cccnc5)nn34)CC2)cc1 | inactive: 11.2% | 
30 | Cc1nnc(N2CCCC(C(=O)NCc3ccccc3)C2)c2nn(-c3ccccc3)c(C)c12 (configuration not stated) | inactive: -4.47% | 
31 | CCCCN(C)CCNC(=O)C1CCCN(S(=O)(=O)c2cccc3nsnc23)C1 (configuration not stated) | inactive: 1.64% | 
32 | CCc1ccc(S(=O)(=O)c2cn(C)c3cc(N4CCOCC4)c(F)cc3c2=O)cc1 | inactive: -0.937% | 
33 | Cc1c(Cl)cccc1-c1ccc(CNCCCSc2nnnn2C)o1 | inactive: -2.46% | 
34 | O=C1Nc2ccccc2Oc2cc(Oc3cccc(Cl)c3)ccc21 | inactive: -1.66% | 
35 | O=C(CCn1nc(-c2ccccc2)c2ccccc2c1=O)Nc1ccccc1 | inactive: 1.36% | 
36 | Cc1cccc(C)c1NC(=O)Nc1csc2c1CCCC2 | inactive: -12.2% | 
37 | Cc1ccc2nc(N(CCCN(C)C)C(=O)c3ccco3)sc2c1 | inactive: 1.8% | 
38 | Cc1ccc(-n2nc(CO)c(C(=O)NCc3ccccn3)n2)cc1 | inactive: 4.08% | 
39 | COc1ccc(-c2nc(-c3cc4cc(Br)ccc4oc3=O)cs2)cc1 | inactive: -3.68% | 
40 | COc1ccccc1N1CCN(c2nc3ccccc3n3cnnc23)CC1 | inactive: 0.941% | 
41 | Cc1cc(-c2ccc(C)c(S(=O)(=O)Nc3cccc(C)n3)c2)on1 | inactive: -7.31% | 
42 | COc1ccc(OCc2ccc(-c3nc(C#N)c(N4CCN(c5ccccc5)CC4)o3)o2)cc1 | inactive: -14.8% | 
43 | CCc1ccc(-n2nnc(-c3nsc(NC(=O)c4ccccc4Cl)n3)c2C)cc1 | inactive: -4.5% | 
44 | CCOC(=O)c1cc2c(=O)n3ccccc3nc2n(Cc2ccco2)c1=NC(=O)c1ccc(Br)cc1 | inactive: -11.8% | 
45 | Cc1ccc(NC(=O)c2nnn(Cc3ccccc3)c2N)cc1C | inactive: 6.1% | 
46 | O=C(CSc1oc(-c2ccccc2)nc1S(=O)(=O)c1ccc(Br)cc1)c1ccccc1 | inactive: -17.8% | 
47 | COc1ccc(C)cc1NC(=O)COc1cc(=O)n(C)c2ccccc12 | inactive: 10.7% | 
48 | COc1ccc(NC(=O)c2ccco2)cc1NC(=O)COc1cccc(C)c1C | inactive: -6.59% | 
49 | CCc1ccc(NC(=O)CN(C)S(=O)(=O)c2ccc3c(c2)c(=O)n(C)c(=O)n3C)cc1 | inactive: 4.18% | 
50 | Cc1ccccc1-c1nc(SCC(=O)NCc2ccc(F)cc2)c2c(=O)n(C)c(=O)n(C)c2n1 | inactive: 10.2% | 

Row | Compound | activity change, negative = cytotoxicity | Potency
51 | COc1ccc(-n2c(SCc3nc(-c4ccc(C)cc4)no3)nnc2-c2ccccc2)cc1 | inactive: -21.2% | 
52 | CCOC(=O)c1ccc(NC(=O)CN(Cc2ccc(C)cc2)S(=O)(=O)c2ccc(C)cc2)cc1 | inactive: -20.7% | 
53 | COC(=O)c1nnn(-c2cccc(C)c2)c1N | inactive: 5.14% | 
54 | Cc1ccccc1OCC(=O)Nc1ccc2oc(-c3ccc(F)cc3)nc2c1 | inactive: 7.94% | 
55 | CC1CN(C(=O)Nc2ccc(C(=O)NCc3ccccc3F)cc2)c2ccccc2S1 (configuration not stated) | inactive: -21.6% | 
56 | COC(=O)c1ccc(NC(=O)CSc2n[nH]c(-c3ccccc3)n2)cc1 | inactive: 13.3% | 
57 | Fc1ccccc1N1CCN(Cc2nnc(-c3ccc4c(c3)OCO4)o2)CC1 | inactive: -10.3% | 
58 | CCOC(=O)c1ccc(N2C(=O)c3n[nH]c(-c4ccco4)c3C2c2ccc(OC)cc2OC)cc1 (configuration not stated) | inactive: -24.4% | 
59 | CCN(CC)c1ccc(NC(=O)Cn2ncc3c(C)n(Cc4ccccc4F)c(C)c3c2=O)c(C)c1 | inactive: 1.25% | 
60 | COc1ccc(/C=C/C(=O)Nc2ccc(C)cc2)cc1 | inactive: -2.2% | 
61 | Cc1ccc(NC(=O)Cc2ccc(NC(=O)N3CCCCc4ccccc43)cc2)cc1Cl | inactive: -29.3% | 
62 | CCCCOc1ccc(C(=O)NCC(c2ccc(Cl)cc2)N2CCOCC2)cc1 (configuration not stated) | inactive: -2.08% | 
63 | Cc1cccc(C)c1-n1ncc(C(=O)NCCCN2CCCCC2)c1C1CCN(C(=O)OC(C)(C)C)CC1 | inactive: -27.7% | 
64 | Cc1c(C)n(Cc2ccccc2)c2ccc(C(=O)N3CCN(c4ccccc4F)CC3)cc12 | inactive: 8.75% | 
65 | Cc1nc2ccn(Cc3cccnc3)c(=O)c2cc1C(=O)N1CCN(c2ccccc2F)CC1 | inactive: -1.86% | 
66 | O=C(NCCc1ccc(Cl)cc1)c1cc(-c2ccccc2)n[nH]1 | inactive: -11.9% | 
67 | COc1ccc(SCc2cc(=O)c3ccc(C)c(C)c3[nH]2)cc1 | inactive: 6.01% | 
68 | Cc1ccc(Sc2ccc(N3CCCC(C(=O)Nc4ccc(Br)cc4)C3)nn2)cc1 (configuration not stated) | inactive: 4.63% | 
69 | COc1ccc(C2=C(C)C(N3CCC(C(=O)NCc4ccc(C)o4)CC3)=NS2(=O)=O)cc1 | inactive: 6.59% | 
70 | CCOc1ccc(-c2nnc(SCC(=O)NC3CCCCC3)nc2-c2ccc(OCC)cc2)cc1 | inactive: 24% | 
71 | COc1ccc2c(c1)Cc1sc(NC(=O)c3ccccc3C)nc1-2 | inactive: -18.1% | 
72 | O=C(NC1CCCC1)c1ccc2c(=O)n(Cc3ccccc3)c(SCc3ccc([N+](=O)[O-])cc3)nc2c1 | inactive: 6.57% | 
73 | CCc1ccc(NC(=O)Nc2cn(C)c(=O)c3ccccc23)cc1 | inactive: -15.6% | 
74 | CCN(CCCNC(=O)CSc1cc(=O)n(CC)c2ccccc12)c1ccccc1 | inactive: -8.93% | 
75 | CCc1ccc(-n2nc(CO)c(C(=O)NC(C)c3ccc(Cl)cc3)n2)cc1 (configuration not stated) | inactive: -3.35% | 

Row | Compound | activity change, negative = cytotoxicity | Potency
76 | COc1cccc(CNC(=O)CN2C(=O)CCc3cc(S(=O)(=O)N4CCOCC4)ccc32)c1 | inactive: -25.6% | 
77 | COc1ccc(OC)c2sc(N(Cc3cccnc3)C(C)=O)nc12 | inactive: -0.951% | 
78 | CCOC(=O)N1CCN(Cc2nc3cc(NC(=O)CC)ccc3n2C(C)C)CC1 | inactive: -16.7% | 
79 | CCc1ccccc1NC(=O)Cn1nc(C(F)(F)F)c2c1CCC2 | inactive: 15.5% | 
80 | Cc1cc(C)c2c(CC(=O)Nc3ccccc3C(F)(F)F)coc2c1 | inactive: 2.49% | 
81 | COc1ccc(S(=O)(=O)c2c(O)c3ccc(C(=O)Nc4ccccc4)cc3[nH]c2=O)cc1 | inactive: 18.1% | 
82 | Cc1nn2c(=O)cc(COC(=O)c3cccs3)nc2s1 | inactive: -25.8% | 
83 | CSc1ccc(CCNC(=O)c2ccc3c(Cl)c4c(nc3c2)CCCC4)cc1 | inactive: 21.2% | 
84 | CCCSc1ncc(Cl)c(C(=O)Nc2nc3ccc(C)cc3s2)n1 | inactive: 5.51% | 
85 | CCOC(=O)c1ccccc1NC(=O)Cn1c(=O)n(Cc2nc(C)no2)c(=O)c2ccccc21 | inactive: -0.0859% | 
86 | CN(c1ccccc1C(=O)O)S(=O)(=O)c1ccc2[nH]c(=O)oc2c1 | inactive: 9.74% | 
87 | O=C(CCn1c(=O)c2ccccc2n(Cc2cccc(Cl)c2)c1=O)NCCc1ccccc1 | inactive: 12.3% | 
88 | Cc1cccc(NC(=O)C2CCN(c3nnc(C)c4c(C)n(-c5ccccc5)nc34)CC2)c1C | inactive: 12.9% | 
89 | Cc1ccc(Cl)cc1NC(=O)C1CCCN(c2cnccn2)C1 (configuration not stated) | inactive: -5.15% | 
90 | O=C(NCc1ccccc1)C(=O)NCC(c1ccco1)S(=O)(=O)c1cccs1 (configuration not stated) | inactive: 1.04% | 
91 | CN(C)c1ccc(C(CNS(=O)(=O)c2ccc(Cl)cc2)N2CCOCC2)cc1 (configuration not stated) | inactive: 10.1% | 
92 | O=C(NCC1(c2ccccc2)CCCC1)C(=O)Nc1cccc(Br)c1 | inactive: 2.74% | 
93 | Cc1cccc(C)c1NC(=O)Cn1nnc(C(=O)NCc2ccc(F)cc2)c1N | inactive: 1.89% | 
94 | Cc1oc2c(C)c3oc(=O)c(CC(=O)N4CCCCC4)c(C)c3cc2c1C | inactive: 10.8% | 
95 | CCc1nn(C(C)C(=O)N2CCN(c3ccccc3)CC2)c(=O)c2cc3occc3n12 (configuration not stated) | inactive: 0.766% | 
96 | CCCN(CCC)C(=O)C(Cc1ccccc1)NS(=O)(=O)c1ccc2c(c1)c(=O)n(C)c(=O)n2C (configuration not stated) | inactive: 16.2% | 
97 | Cn1c(=O)c2c(nc(Oc3ccccc3Cl)n2Cc2ccc(C#N)cc2)n(C)c1=O | inactive: -4.11% | 
